This note sets out measurements from the supplement of paper PMC4967469.

Lines with a small IC50 respond at low doses; a limit (>, <) means that the fit lies beyond the doses tested. AUC, from the same fit, is the share of area under the viability curve across the 256-fold dose range; it is 1 without any effect and falls as sensitivity rises. For part of these data: Any top dose called inferred comes from the curve model; the source does not state it.

Holding throughout (test): Viability of human cancer cell lines after 72 h of drug (GDSC screen)
Compound in one assay: CC(=O)Nc1nc(C)c(-c2ccc(Cl)c(S(=O)(=O)NCCO)c2)s1 [PIK-93]
To be noted: top dose 20 µM. How it is done:
(§1)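 Human cancer cell lines in 384-well plates, medium with 10% serum, drug for 72 h over a 256-fold dose range (nine 2-fold or five 4-fold steps up to the top dose). Adherent lines were fixed and stained with the nucleic acid dye Syto60, suspension lines read with resazurin; signal relative to control wells, capped at 0 and 100%. One two-parameter sigmoid per drug and line, fitted in a mixed model over all curves with the slope shared within a line.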

Compound in the next assay: CC1(C)CCC(c2ccc(Cl)cc2)=C(CN2CCN(c3ccc(C(=O)NS(=O)(=O)c4ccc(N[C@H](CCN5CCOCC5)CSc5ccccc5)c(S(=O)(=O)C(F)(F)F)c4)cc3)CC2)C1 [ABT-263]
The note with it: top dose 2 µM; top dose inferred. How it is done: as §1

Compound in a further assay: COc1cc(/C=C/C(=O)N2CCC=CC2=O)cc(OC)c1OC [piperlongumine]
To be noted: top dose 10 µM. How it is done:
as §1

Compound in the next assay: COc1cc2ncn(-c3cc(OCc4ccccc4C(F)(F)F)c(C(N)=O)s3)c2cc1OC [GW843682X]
To be noted: top dose 0.256 µM. How it is done: as §1

Compound in another assay: Cn1cc(/C=C2\C(=O)Nc3cccnc32)c2ccccc21 [GW 441756]
To be noted: top dose 2 µM; top dose inferred. How it is done: as §1

Compound in the next assay: O=C(/C=C/c1ccccc1)NC(NC(=S)Nc1cccc2cccnc12)C(Cl)(Cl)Cl [Salubrinal]
The note with it: top dose 16 µM; top dose inferred. As for the experimental part:
as §1

D-283MED (medulloblastoma, adherent): the AUC with PIK-93 came to 0.991; with ABT-263, 0.57; with piperlongumine, 0.852; in the assay with GW843682X, 0.991; with GW 441756, 0.983; in the assay with Salubrinal, 0.989. The concentration for half-maximal inhibition (IC50) in the assay with PIK-93 is > 20 µM; with ABT-263, 0.191 µM; with piperlongumine it was 6.72 µM; with GW843682X it was > 0.256 µM; with GW 441756, > 2 µM; in the assay with Salubrinal, > 16 µM.

Consider “MS-1 (small cell lung carcinoma, suspension)”, for which the AUC with PIK-93 was 0.827; with ABT-263, 0.665; with piperlongumine, 0.834; with GW843682X, 0.492; with GW 441756 it was 0.989; with Salubrinal, 0.843. Besides, the 50% inhibitory concentration (IC50) is 10.5 µM with PIK-93; 0.341 µM with ABT-263; 5.56 µM in the assay with piperlongumine; 0.0152 µM with GW843682X; > 2 µM with GW 441756; 9.59 µM in the assay with Salubrinal.

For the cell line “LU-165 (small cell lung carcinoma, suspension)”, the AUC with PIK-93 stood at 0.861; with ABT-263, 0.976; with piperlongumine, 0.831; in the assay with GW843682X, 0.929; with GW 441756 it was 0.987; with Salubrinal, 0.975. In addition, the 50% inhibitory concentration (IC50) in the assay with PIK-93 was > 20 µM; with ABT-263, > 2 µM; with piperlongumine, 7.43 µM; with GW843682X it was > 0.256 µM; in the assay with GW 441756, > 2 µM; with Salubrinal, > 16 µM.

In the case of “COR-L95 (small cell lung carcinoma, adherent)”, the AUC in the assay with PIK-93 came out at 0.888; in the assay with ABT-263, 0.562; with piperlongumine, 0.929; in the assay with GW843682X, 0.921; in the assay with GW 441756 it was 0.895; with Salubrinal it was 0.952. For the same cell line, the IC50 was > 20 µM with PIK-93; 0.189 µM in the assay with ABT-263; > 10 µM with piperlongumine; > 0.256 µM with GW843682X; > 2 µM with GW 441756; > 16 µM in the assay with Salubrinal.

Take SU-DHL-4 (B-cell lymphoma, suspension): the AUC with PIK-93 worked out at 0.467; with ABT-263 it was 0.941; in the assay with piperlongumine, 0.873; with GW843682X, 0.611; with GW 441756, 0.997; in the assay with Salubrinal, 0.906. Also, the IC50 is 1.04 µM in the assay with PIK-93; 1.79 µM with ABT-263; 5.28 µM with piperlongumine; 0.0296 µM with GW843682X; > 2 µM with GW 441756; 10.6 µM in the assay with Salubrinal.

Consider ONS-76 (medulloblastoma, adherent), for which the AUC was determined as 0.885 with PIK-93; 0.976 in the assay with ABT-263; 0.716 in the assay with piperlongumine; 0.7 with GW843682X; 0.89 in the assay with GW 441756; 0.875 with Salubrinal. In addition, the IC50 is > 20 µM in the assay with PIK-93; > 2 µM with ABT-263; 2.7 µM with piperlongumine; 0.0614 µM with GW843682X; > 2 µM with GW 441756; > 16 µM with Salubrinal.

In the case of COLO-800 (melanoma, adherent), the AUC amounted to 0.928 with PIK-93; 0.974 in the assay with ABT-263; 0.745 with piperlongumine; 0.988 with GW843682X; 0.985 with GW 441756; 0.978 with Salubrinal. Besides, the IC50 with PIK-93 was > 20 µM; in the assay with ABT-263, > 2 µM; with piperlongumine, 3.07 µM; with GW843682X, > 0.256 µM; with GW 441756 it was > 2 µM; with Salubrinal it was > 16 µM.

For TGBC1TKB (biliary tract, adherent), the AUC is 0.954 with PIK-93; 0.839 with ABT-263; 0.823 with piperlongumine; 0.63 with GW843682X; 0.989 with GW 441756; 0.95 in the assay with Salubrinal. For the same cell line, the IC50 was > 20 µM with PIK-93; 1.35 µM in the assay with ABT-263; 5.83 µM with piperlongumine; 0.0364 µM with GW843682X; > 2 µM with GW 441756; > 16 µM with Salubrinal.

Regarding ES6 (Ewing sarcoma, adherent), the AUC amounted to 0.67 with PIK-93; 0.973 with ABT-263; 0.805 with piperlongumine; 0.388 with GW843682X; 0.961 with GW 441756; 0.903 with Salubrinal. Further, the IC50 with PIK-93 is 4.19 µM; with ABT-263, > 2 µM; with piperlongumine, 6.55 µM; with GW843682X, 0.00728 µM; with GW 441756, > 2 µM; in the assay with Salubrinal, > 16 µM.

As for LB373-MEL-D (melanoma, adherent), the AUC with PIK-93 was 0.878; in the assay with ABT-263 it was 0.981; with piperlongumine it was 0.839; with GW843682X, 0.798; with GW 441756 it was 0.942; in the assay with Salubrinal, 0.981. For the same cell line, the 50% inhibitory concentration (IC50) with PIK-93 is 19.7 µM; in the assay with ABT-263 it was > 2 µM; with piperlongumine, 6.58 µM; with GW843682X, 0.119 µM; with GW 441756, > 2 µM; with Salubrinal it was > 16 µM.
